From PubChem BioAssay AID504466 (National Center for Advancing Translational Sciences (NCATS), 2011)
About 4,200 (1.3%) of roughly 330,000 compounds were called active. Inconclusive means that the source gave no clear call. Such entries were picked first, then a sample of the others. Calls come from the whole dose curve; as a rule, active = well fitted activation curve with a large enough effect; inconclusive = small, poorly fitted or top-dose-only effect; inactive = no such curve, though single readings can be large or run the other way. Potencies of inconclusive entries are doubtful fits and often do not repeat.

Test: qHTS screen for small molecules that induce genotoxicity in human embryonic kidney (HEK293T) cells expressing luciferase-tagged ELG1; note: nearly all actives have a fitted effect of over 60% in size
Conditions: HEK293T ELG1-luciferase reporter, luminescence, 16 h; series mostly up to 46 µM
Outline: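 Genotoxic stress is detected as increased luminescence from luciferase-tagged ELG1 in HEK293T cells, measured with ONE-Glo after a 16 hr treatment at 37 °C.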
Potency is the fitted concentration of half-maximal effect; tags give direction and shape of the fitted curve.

Structure (SMILES)	Potency
CCCOc1ccc(-c2cc3onc(-c4ccccc4)c3c(=O)n2C)cc1	inconclusive: 0.517 µM [activator, full curve]
COCCCNc1nnc(Cc2ccc(Cl)cc2)c(=O)[nH]1	inactive
Cn1c(=O)c2c(nc(N/N=C/c3ccncc3)n2Cc2ccccc2)n(C)c1=O	inactive
CN(C)/N=C/C=C1\CCC/C(=C\c2ccc(F)c(F)c2)C1=O	inactive
Cc1nc(-c2ccc(NC(=O)c3ccccc3Br)cc2)cs1	inconclusive: 8.2 µM [activator, partial curve]
Cc1ccc(C)c(S(=O)(=O)N2CCCOC2CNC(=O)C(=O)NCCc2ccco2)c1 (centres undefined)	inactive
CCOc1ccc(N=Nc2c(N)[nH][nH]c2=O)cc1	inconclusive: 20.6 µM [activator, partial curve]
CC(=O)Nc1ccc(SCC(=O)N2CCN(S(=O)(=O)c3ccccc3)CC2)cc1	inactive
CCc1ccc(C(=O)N/N=C(\C)c2ccncc2)s1	inconclusive: 23.1 µM [activator, partial curve]
COc1cc2c(cc1OC)CN(C(=O)c1ccc([N+](=O)[O-])o1)CC2	inactive
CCOc1ccc(OCCC(=O)OCC(=O)N2CCN(S(=O)(=O)c3ccc(C)cc3)CC2)cc1	inactive
O=C(Nc1ccc(N2CCCC2)cc1)c1cc(Cl)ccc1Cl	inactive
Cc1cccc(S(=O)(=O)Nc2nc3ccccc3nc2Nc2ccc3c(c2)OCO3)c1	inactive
COc1cccc(OCc2cc(C(=O)N3CCCC3c3ccccn3)no2)c1 (centres undefined)	inconclusive: 9.2 µM [activator, partial curve]
COCc1nc2oc3ccccc3c(=O)c2cc1C(=O)OC	inconclusive: 18.3 µM [activator, partial curve, poor fit]
Cc1ccc(N2NC(=O)/C(=C\c3cc4c(cc3[N+](=O)[O-])OCO4)C2=O)cc1C	inconclusive: 23.1 µM [activator, single point]
CCOC(=O)c1cc2cc(OC)ccc2[nH]1	inconclusive: 10.3 µM [activator, partial curve, poor fit]
Cc1ccc(Nc2c([N+](=O)[O-])c(=O)oc3ccccc23)cc1	inactive
Cc1ccc(OCC(=O)c2cc(C)n(C3CC3)c2C)c([N+](=O)[O-])n1	inactive
COc1ccc(C(=O)NNC(=O)Nc2ccc(Cl)cc2)cc1	inconclusive: 23.1 µM [activator, single point]
N/C(=N\OC(=O)c1ccc(Br)cc1)c1ccncc1	inconclusive: 10.3 µM [activator, partial curve, poor fit]
CCOC(=O)C1=C(COC(=O)c2cccc(Cl)c2)NC(=O)NC1C (centres undefined)	inconclusive: 29.1 µM [activator, partial curve, poor fit]
COc1ccc2nc(Nc3nc(C)c(C(C)=O)s3)sc2c1	inconclusive: 2.59 µM [activator, partial curve, poor fit]
O=C(Nc1ccccc1[N+](=O)[O-])C1=C(O)CCn2c1nc1ccccc12	inconclusive: 29.1 µM [activator, single point]
COc1ccc2nc(Cl)c(/C=N/Nc3ccccn3)cc2c1	inconclusive: 10.3 µM [activator, partial curve, poor fit]

Structure (SMILES)	Potency
COc1cccc(C(=O)N=c2sc3cc(S(C)(=O)=O)ccc3n2C)c1	inconclusive: 14.6 µM [activator, partial curve, poor fit]
CC(C)Cc1nc2oc3c(=O)[nH]cnc3c2c2c1CCC2	inactive
COc1cc(OC)cc(C(=O)N[C@H](C(=O)Nc2nc3ccccc3[nH]2)C(C)C)c1	inconclusive: 5.8 µM [activator, partial curve, poor fit]
CC1(C)Cc2c(sc(NC(=O)COc3cccc4ccccc34)c2C#N)C(C)(C)N1	inconclusive: 29.1 µM [activator, single point]
O=C(COc1ccccc1)Nc1ccccc1F	inconclusive: 20.6 µM [activator, partial curve]
Cc1cccc(OCCN2C(=O)c3ccccc3C2=O)c1	inconclusive: 20.6 µM [activator, partial curve, poor fit]
CCc1ccc(OCC(=O)NNC(=O)Cc2cccs2)cc1	inactive
CC(=O)c1cc2c(C)c(C(=O)c3ccccc3)oc2cc1O	inconclusive: 2.06 µM [activator, partial curve]
Cc1cccc(NC(=O)Nc2ccc(C)cc2Br)c1	inconclusive: 10.3 µM [activator, partial curve, poor fit]
Fc1ccccc1CSc1nnc(-c2cccs2)o1	active: 8.2 µM
COc1ccc(NC(=O)C2C3CCC(O3)C2C(=O)O)cc1OC (centres undefined)	inconclusive: 23.1 µM [activator, partial curve, poor fit]
Cc1ccc(-c2cc(C(=O)NCC3CCCO3)no2)cc1 (centres undefined)	inconclusive: 2.91 µM [activator, full curve]
CN1/C(=C/C(=O)c2cccs2)Sc2ccccc21	active: 1.3 µM
COc1ccc(/C=N\NC(=O)C2=NNC(=O)C2C)cc1 (centres undefined)	inconclusive: 14.6 µM [activator, partial curve, poor fit]
Cc1cccc(C)c1NC(=O)CSc1ncnc2[nH]ncc12	inactive
Cc1c(C(=O)OCC(=O)N2C(C)CCCC2C)oc2ccccc12 (centres undefined)	inconclusive: 2.59 µM [activator, full curve, poor fit]
COc1ccc2c(c1)CCc1c(C(=O)N3CCCCCC3)noc1-2	inconclusive: 7.31 µM [activator, partial curve]
CCOc1ccc(C(=O)Nc2c(C(N)=O)oc3ccccc23)cc1	inactive
Cc1cc(=O)[nH]c(N2CCCC2)n1	inconclusive: 16.4 µM [activator, single point]
O=C(NCCCN1CCOCC1)c1ccc(-n2nc(C(F)(F)F)cc2-c2cccs2)cc1	inactive
COc1ccc(CCNC(=O)COC(=O)Cn2cnc3c2c(=O)n(C)c(=O)n3C)cc1	inactive
O=C1/C(=C/c2cccs2)Cc2ccccc21	inconclusive: 16.4 µM [activator, partial curve]
COc1cccc(NC(=O)[C@H](NC(=O)[C@@H]2Cc3ccccc3CN2)c2ccccc2)c1	inconclusive: 16.4 µM [activator, partial curve, poor fit]
Cc1ccc(S(=O)(=O)NCCC(=O)Nc2nnc(C3CC3)s2)cc1C	inactive
COCc1[nH][nH]c(=O)c1C=Nc1ccc(Cl)cc1	inconclusive: 25.9 µM [activator, partial curve, poor fit]

Structure (SMILES)	Potency
Cc1c(/C(O)=C2\C(=O)C(=O)N(CCN(C)C)C2c2cccnc2)cnn1-c1ccccc1 (centres undefined)	inactive
O=C(NNC(=O)c1ccc(S(=O)(=O)N2CCCCC2)cc1)c1ccc(F)cc1	inactive
COc1ccc(OC)c(NC(=O)c2cc(S(=O)(=O)N3CCCC3)cn2C)c1	inactive
CC(=O)NCC1COc2ccccc2O1 (centres undefined)	inactive
CCc1ccc(-c2cc(C(=O)NN3CCN(C)CC3)c3ccccc3n2)cc1	inconclusive: 14.6 µM [activator, partial curve, poor fit]
O=C1C(Cl)=C(NCCCN2CCOCC2)C(=O)N1CCc1ccccc1	inconclusive: 20.6 µM [activator, partial curve, poor fit]
COc1ccc(/C=C/c2nnc(NC(C)=O)s2)cc1	active: 2.31 µM
CC(=O)c1sc(NC(=O)CCOc2ccccc2)nc1C	inconclusive: 18.3 µM [activator, partial curve, poor fit]
Cc1ccc(NC2=Nc3ccccc3CC2)cc1	active: 0.731 µM
Cn1ncc2c(O/N=C(\N)c3ccc(C(C)(C)C)cc3)ncnc21	inactive
COc1ccc(OCc2nnc(SCC(=O)N3C(C)CCCC3C)o2)cc1 (centres undefined)	inactive
O=C(O)c1cc(N/N=C/c2ccc3c(c2)OCO3)ccc1Cl	inconclusive: 1.16 µM [activator, partial curve]
CC1(C)CN=C(N(Cc2ccccc2)C(=O)Nc2ccccc2)S1	inconclusive: 16.4 µM [activator, partial curve]
Cc1ccc(S(=O)(=O)n2ccc3c(OCCOCCNCc4ccc(F)cc4)cccc32)cc1	inconclusive: 29.1 µM [activator, partial curve, poor fit]
Cc1cc(C(=O)Nc2ccc3[nH]ccc3c2)no1	inconclusive: 18.3 µM [activator, partial curve]
O=C(/C=C/c1ccc([N+](=O)[O-])cc1)/C=C/c1ccco1	inactive
Cc1ccc(-c2nc(-c3ccccn3)no2)cc1Cl	inconclusive: 0.116 µM [activator, full curve]
Cc1cccc(OCc2cc(-c3ccccc3)no2)c1C	inconclusive: 18.3 µM [activator, single point]
Nc1nnc(CSCc2cccc(Br)c2)s1	inactive
CCOC(=O)c1sc2nccc(OC)c2c1N=CNOC	inactive
N/C(=N\OC(=O)c1ccc2c(c1)OCO2)c1ccc([N+](=O)[O-])cc1	inconclusive: 14.6 µM [activator, partial curve]
CCOC(=O)N1CCN(C(=O)c2noc3c2COc2ccccc2-3)CC1	inconclusive: 11.6 µM [activator, partial curve]
CCN1CCN(S(=O)(=O)c2ccc(Cl)c(C(=O)NCCc3ccccc3)c2)CC1	active: 16.4 µM
COc1ccc(NC(=O)c2cc3ccccc3cc2O)cc1	inconclusive: 9.2 µM [activator, partial curve]
